Experimental data from PubChem BioAssay AID2451 (National Center for Advancing Translational Sciences (NCATS), 2010).
“And” between values parts separate entries of the source, which are not always exact repeats. Equal entries are not always repeated. Among all 290,000 compounds or so, about 2,100 (0.72%) were called active. Inconclusive results, whose numbers are uncertain, are shown with a selection of clear calls. The call rests on the fitted dose curve; in most records, active means well fitted inhibition curve with a large enough effect; inconclusive means small, poorly fitted or top-dose-only effect, or effect the other way; inactive means flat fitted curve, though single readings scatter. Potencies beside an inconclusive call are fits to weak or partial responses and may not hold up.

molecular target: Fructose-bisphosphate aldolase (Giardia intestinalis (strain ATCC 50803 / WB clone C6)) (UniProt A8B2U2); test: qHTS Assay for Inhibitors of Fructose-1,6-bisphosphate Aldolase from Giardia Lamblia; settings: purified Giardia FBPA; activity, negative = inhibition: at 59.6 µM (top of the series) unless noted; further: nearly all actives have a fitted effect of over 55% in size
UniProt A8B2U2, sequence (A8B2U2 whole entry, looked up): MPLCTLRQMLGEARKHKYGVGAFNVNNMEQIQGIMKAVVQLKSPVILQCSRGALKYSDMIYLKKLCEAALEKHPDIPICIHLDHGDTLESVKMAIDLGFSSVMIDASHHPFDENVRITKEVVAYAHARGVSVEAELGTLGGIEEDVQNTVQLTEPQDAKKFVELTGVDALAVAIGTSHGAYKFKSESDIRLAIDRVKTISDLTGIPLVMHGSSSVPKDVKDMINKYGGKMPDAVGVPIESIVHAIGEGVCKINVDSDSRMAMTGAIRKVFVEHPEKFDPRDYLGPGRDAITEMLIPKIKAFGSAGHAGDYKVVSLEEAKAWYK
Text: Assay Provider: Osnat Herzberg, University of Maryland
The objective of this project is to obtain compounds that inhibit Giardia lamblia growth. G. lamblia is a human pathogen which afflicts impoverished nations; it is the most common cause of outbreaks of diarrhea in the United States. During the course of our study of potential drug targets in Giardia, we have identified the Class II (Zn2+ functions in electrophilic catalysis) fructose-1,6-bisphosphate aldolase (FBPA) as an excellent candidate for drug targeting. FBPA is a key glycolytic pathway enzyme, essential for G. lamblia survival. The human FBPA belongs to the Class I aldolases, which have a different substrate binding site structure and a radically different catalytic mechanism (employing a lysine-Schiff base intermediate). Therefore, affinity-based or mechanism-based inhibitors of the Giardia FBPA are expected not to interfere with the catalytic function of the human FBPA.
A glyceraldehyde-3-phosphate dehydrogenase/triose phosphate isomerase/NAD/arsenate coupled assay was adapted to the 1536-well HTP format for use in the primary screen. This was done by coupling it to a diaphorase/resazurin/resorufin reaction that can be monitored by fluorescence (excitation, 544 nm; emission, 590 nm). Compounds identified in this screen will be further evaluated by coupling the glycerol-3-phosphate/triose phosphate isomerase/NADH assay to a phenazine methosulfate/tetranitroblue tetrazolium color reaction. False positives due to the dehydrogenases and diaphorase inhibition will be eliminated, and selectivity assay will triage inhibitors of mammalian triose phosphate isomerase and the Class I FBPA. G. lamblia FBPA inhibitors identified by the in vitro analyses will be examined for growth inhibition of Giardia trophozoites, and for cytotoxicity in human cells.
Step,Parameter,Value,Description
1,Enzyme reagent,2 uL,40 nM FBPA
2,Compound,23 nL,3.68 nM-57.5 uM final concentration
3,Time,10 min,RT Incubation
4,Substrate/detection Reagent,2 uL,Substrate + enzyme coupling system + AmpLite Red kit
5,Time,20 min,RT Incubation
6,Detector,525 nm/598 nm (Fluorescence),ViewLux Fluorescence Read (Read 1)
1,Medium-binding black solid-bottom Kalypsys plates. FRD or Kalypsys dispenser, 2 uL of FBPA enzyme. Bottle kept at 4C.
2,Compound Library (10 mM ,1:5 dilution). Pin-transferred for a [final] range of 3.68 nM-57.5 uM.
4,FRD or Kalypsys dispenser, 2 uL of reaction mixture. Bottle kept at 4C and covered in foil to protect from light.
6,ViewLux Protocol 1194; Excitation filter wheel A (525/20 Pol; BODIPY TMR FP), Emission filter wheel B (598/25 S; BODIPY TMR FP S).
Keywords: Fructose-bisphosphate aldolase, FBPA , Giardia lamblia , Giardia, HTS, Inhibitors
On the % scale 0 is the no-effect control and ±100 the full control effect; potency means the concentration at half of the fitted maximal effect; tags describe the fitted curve by direction and shape.

SMILES	Potency	activity, negative = inhibition
CCC(Sc1ncccc1C(=O)O)C(=O)N1CCCC1 (stereo unspecified)	inconclusive: 17.7 µM [inhibitor, partial curve]	–
O=c1cccccc1NN=C1CCCCC1	inconclusive: 12.6 µM [inhibitor, partial curve]	–
COc1ccc(Cl)cc1NC(=O)CN1C(=O)CC(C)S(=O)(=O)c2ccccc21 (stereo unspecified)	inconclusive: 17.7 µM [inhibitor, single point]	–
COc1cc2c(cc1OC)C1O[C@](CCCCN3C(=O)c4ccccc4C3=O)(C2)Oc2c1c(=O)oc1ccc(F)cc21	–	inconclusive: 36.5% [activator] [at 12.9 µM]
O=C1C(=Cc2cccs2)C(=O)c2ccccc21	inconclusive: 1.58 µM [inhibitor, full curve, poor fit]	–
COc1cccc2c1C(=O)c1c(O)c3c(c(O)c1C2=O)C[C@@](O)(C(=O)CO)C[C@@H]3O[C@H]1C[C@H](N)[C@H](O)[C@H](C)O1	inconclusive: 22.3 µM [inhibitor, partial curve]	–
Cc1c(C(=O)O)oc2ccc(S(=O)(=O)NC3CCCCCCC3)cc12	inconclusive: 14.1 µM [activator, partial curve]	–
CCc1nnc(NC(=O)c2ccc(S(=O)(=O)N3CCCc4ccccc43)cc2)o1	inconclusive: 19.9 µM [inhibitor, partial curve]	–
Cc1ccc(NC(=S)c2ccncc2)cc1	active: 28.2 µM	–
Cc1ncoc1C(=O)Nc1nccs1	–	inactive: -6.93%
c1ccc2c(c1)[nH]c1c(N3CCOCC3)ncnc12	–	inactive: -7.15%
Cc1ccc(SCC(=O)Nc2ccc(S(=O)(=O)Nc3nccs3)cc2)cc1	–	inactive: 16%
Cc1ccc(C)c(-n2c(-c3ccncc3)n[nH]c2=S)c1	inconclusive: 19.9 µM [inhibitor, partial curve]	–
O=[N+]([O-])CC(=Nc1ccc(F)cc1)N/N=C\c1oc(O)c2ccccc12	inconclusive: 15.8 µM [inhibitor, single point]	–
COc1ccc(OCc2nn[nH]n2)cc1	active: 25.1 µM	–
O=C1C(NS(=O)(=O)c2cccs2)=C(N2CCN(c3cccc(C(F)(F)F)c3)CC2)C(=O)c2ccccc21	inconclusive: 5.61 µM [inhibitor, partial curve]	–
O=C(c1cccc(NC2=NC3CS(=O)(=O)CC3S2)c1)N1CCN(c2ncccn2)CC1 (stereo unspecified)	inconclusive: 25.1 µM [inhibitor, partial curve]	–
N#CC1=C(N)SC(N)=C(C#N)C1c1cccc(Oc2ccccc2)c1	inconclusive: 14.1 µM [inhibitor, partial curve]	–
Cc1nc2sc(C(N)=O)c(N)c2c(C)c1CC(=O)c1ccccc1	–	inactive: -28.8%
Cc1ccc(S(=O)(=O)N2CCCCC2)cc1NC(=O)CSc1nncn1-c1ccccc1	–	inactive: 2.46%
O=c1cc(-c2ccccc2O)oc2c(O)c(O)ccc12	active: 6.29 µM	–
CC/C(C)=N/NC(=S)NCc1ccco1	inconclusive: 17.7 µM [inhibitor, partial curve]	–
COc1ccccc1/C=N/NC(=O)CC(=O)NCc1cccnc1	inconclusive: 22.3 µM [inhibitor, single point]	–
CC(=O)OCC1(C)CN(c2ccccc2)NC1=O (stereo unspecified)	inconclusive: 15.8 µM [inhibitor, partial curve]	–

SMILES	Potency	activity, negative = inhibition
O=C(C1=C(O)C(=O)N(c2ncccn2)C1c1ccc(F)cc1)c1ccco1 (stereo unspecified)	inconclusive: 15.8 µM [inhibitor, partial curve]	–
CCCCC1=CC2=C(c3ccco3)C(=O)C(C)(OC(=O)c3ccc(OC)cc3)C(=O)C2=CN1CCc1ccccn1 (stereo unspecified)	inconclusive: 14.1 µM [inhibitor, partial curve] and inconclusive: 5.61 µM [inhibitor, single point]	–
COc1cc(OC)c(OC)cc1CN1CCSCC1	inconclusive: 31.6 µM [inhibitor, partial curve]	–
Cc1ccc(S(=O)(=O)N2CCOCC2)cc1NC(=O)CN1CCC(Cc2ccccc2)CC1	inconclusive: 19.9 µM [inhibitor, partial curve]	–
CC(C)(C)c1ccc(OCCNCc2ccccc2)cc1	inconclusive: 12.6 µM [inhibitor, partial curve]	–
CC(C)C(=O)Nc1ccc(-c2csc(-c3ccccc3)n2)cc1	–	inactive: -0.158%
Cc1cc(N)ccc1NC(=O)CN1CCCC1	inconclusive: 17.8 µM [inhibitor, partial curve]	–
CC1(C)C(=O)C=C[C@@]2(C)C1=C(O)C(=O)[C@@]1(C)C2CC[C@@]2(C)C(c3ccoc3)C[C@H]3O[C@@]321 (stereo partly specified)	–	inactive: -2.6%
COc1ccc(F)cc1S(=O)(=O)n1nc(C)cc1C	–	inactive: -3.58%
Cn1c(-c2cc3ccc(OC(=O)C(C)(C)C)cc3oc2=O)nc2ccccc21	–	inactive: -0.0362%
Cc1ccc(C(=O)NC(=S)Nc2cccc3nsnc23)cc1	inconclusive: 3.97 µM [inhibitor, full curve]	–
COc1cc(C)c(NC(=O)C(=S)NCCc2ccccc2)cc1C	inconclusive: 28.1 µM [inhibitor, single point]	–
COc1ccc(SCC(Cc2ccccc2)N2CCN(CC(C)C)CCC2=O)cc1 (stereo unspecified)	–	inactive: -2.56%
Cc1snc(SCC(=O)c2ccc([N+](=O)[O-])cc2)c1C#N	inconclusive: 17.7 µM [inhibitor, single point]	–
CC(C)(C)C1CCc2c(sc(N)c2C(N)=O)C1 (stereo unspecified)	inconclusive: 11.2 µM [inhibitor, partial curve]	–
Cc1ccc(NC2c3ncccc3C(=O)N2Cc2cccs2)cc1 (stereo unspecified)	inconclusive: 31.5 µM [inhibitor, single point]	–
CCn1c(SC(C)C(=O)Nc2nnc(C)s2)nnc1-c1ccco1 (stereo unspecified)	inconclusive: 22.4 µM [inhibitor, partial curve]	–
O=C(O)c1cccc(NC2=C(N3CCOCC3)C(=O)c3ccccc3C2=O)c1	inconclusive: 7.06 µM [inhibitor, partial curve]	–
Cc1nn(-c2ccc(C(=O)O)cc2)c(N)c1-c1ccccc1	–	inactive: 1.16%
CNC(=S)N/N=C(\C)c1ccc(N2CCOCC2)cc1	inconclusive: 17.7 µM [inhibitor, single point]	–
COCc1nnc(NC(=O)c2ccc(S(=O)(=O)N(CC(C)C)CC(C)C)cc2)o1	inconclusive: 19.9 µM [inhibitor, single point]	–
COc1ccc(-c2cc(-c3ccccc3)nc(-c3ccc4c(c3)NC(=O)CO4)c2)cc1	–	inactive: -8.16%
CCOc1ccc(N)c(SSc2cc(OCC)ccc2N)c1	inconclusive: 11.2 µM [inhibitor, partial curve]	–
CCOc1ccc(C(=O)Nc2cc3c(cc2N2CCCC2)n(CC)c(=O)n3CC)cc1OCC	inconclusive: 28.2 µM [inhibitor, partial curve]	–

SMILES	Potency	activity, negative = inhibition
CCNc1nc(C(=O)O)nc(N2CCOCC2)n1	active: 22.3 µM	–
O=C(CCCc1ccccc1)N1CCc2ccccc21	–	inactive: 2.32%
O=C(Nc1ccc2c(c1)nc1n2CCN(C2CCCCC2)C1)NC1CCCCC1	inconclusive: 1.99 µM [inhibitor, full curve]	–
O=C(O)c1cncc(Br)c1	–	inactive: -0.892%
Cc1ccc2cccc(NC3OC(=O)c4ccccc43)c2n1 (stereo unspecified)	inconclusive: 15.8 µM [inhibitor, partial curve]	–
CC(C)OC(=O)c1c(NC(=O)CCC(=O)O)sc2c1CCCCC2	inconclusive: 15.8 µM [activator, single point]	–
CCN1/C(=C/C(=O)c2ccco2)Sc2ccccc21	inconclusive: 35.4 µM [inhibitor, single point]	–
Cc1ccc(-n2c3nc(=O)[nH]c(=O)c-3cc3cc([N+](=O)[O-])ccc32)cc1C	inconclusive: 19.9 µM [inhibitor, partial curve]	–
Cc1n[nH]c(=O)nc1N/N=C/c1ccc(O)c([N+](=O)[O-])c1	active: 17.7 µM	–
CSc1nsc(/C=C/Nc2ccc(C)c(C)c2)c1C#N	inconclusive: 7.06 µM [inhibitor, full curve]	–
COc1ccc(C(=O)NCCN2CCCC2)cc1	inconclusive: 22.4 µM [inhibitor, single point]	–
CCC1CCc2c(c3ccccc3[nH]c2=O)O1 (stereo unspecified)	–	inactive: 1.75%
CCCC(=O)N(CCN1CCOCC1)c1nc2c(C)ccc(C)c2s1	inconclusive: 39.8 µM [inhibitor, single point]	–
Nn1cnnc1N/N=C/c1cccc(Cl)c1Cl	inconclusive: 22.4 µM [inhibitor, single point]	–
NCCNC(=O)c1ccc(Cl)cn1	–	inactive: -12.4%
Cc1ccc(-c2csc(NC(=O)/C=C/c3ccco3)c2C(=O)O)cc1	inconclusive: 14.1 µM [inhibitor, partial curve]	–
COc1ccc(Cn2c(N)c(C#N)c3nc4ccccc4nc32)cc1	inconclusive: 14.1 µM [inhibitor, partial curve]	–
Nc1ccn(C2CC(O)C(CO)O2)c(=O)n1 (stereo unspecified)	inconclusive: 10 µM [inhibitor, partial curve]	–
O=C(Nc1nnc(-c2ccc3c(c2)CCCC3)o1)c1ccc(Cl)cc1Cl	inconclusive: 19.9 µM [activator, partial curve]	–
Cc1ccc(C(=O)c2ccccc2C(=O)OCC(=O)NCC2CCCO2)cc1 (stereo unspecified)	inconclusive: 14.1 µM [inhibitor, partial curve]	–
CCOC(=O)/C(=N/Nc1ccc(OC)cc1)N1CCCc2ccccc21	active: 15.8 µM	–
COc1cc2nc3c(c([Si](C)(C)C(C)(C)C)c2cc1OC)Cn1c-3cccc1=O	inconclusive: 19.9 µM [inhibitor, partial curve]	–
COc1ccc2[nH]cc(CCNCc3cccnc3)c2c1	inconclusive: 25.1 µM [inhibitor, partial curve]	–
